According to PubChem BioAssay AID360 (National Center for Advancing Translational Sciences (NCATS), 2006):
In all, about 48,000 compounds went through this assay and about 550 (1.1%) were called active. About 4% were inconclusive and are not listed. Rule as the data show it: active = potency below about 15 µM; inconclusive = mostly about 16 µM to 33 µM; inactive = weaker than that. Some of the results follow.

molecular target: Lysosomal acid glucosylceramidase (Homo sapiens) (UniProt P04062); assay: Glucocerebrosidase; details: purified enzyme, resorufin glucoside fluorescence (screen aimed at inhibitors), 20 min;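 also: the screen sought inhibitors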
Sequence of UniProt P04062 (P04062 whole entry, looked up): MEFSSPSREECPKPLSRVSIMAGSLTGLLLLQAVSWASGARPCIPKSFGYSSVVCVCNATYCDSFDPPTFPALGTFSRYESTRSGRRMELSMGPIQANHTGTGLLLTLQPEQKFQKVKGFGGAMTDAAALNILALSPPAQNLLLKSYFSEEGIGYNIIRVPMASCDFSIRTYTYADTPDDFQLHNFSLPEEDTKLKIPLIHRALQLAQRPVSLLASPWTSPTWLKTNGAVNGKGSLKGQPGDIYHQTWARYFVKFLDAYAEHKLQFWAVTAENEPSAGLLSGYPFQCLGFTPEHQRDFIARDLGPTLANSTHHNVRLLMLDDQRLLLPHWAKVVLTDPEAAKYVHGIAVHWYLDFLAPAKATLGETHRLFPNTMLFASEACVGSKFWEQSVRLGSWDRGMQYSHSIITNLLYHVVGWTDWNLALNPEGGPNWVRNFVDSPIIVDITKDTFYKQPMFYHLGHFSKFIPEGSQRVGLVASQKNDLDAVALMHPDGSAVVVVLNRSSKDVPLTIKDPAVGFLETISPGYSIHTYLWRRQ
Method in brief: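 Wild-type enzyme at 0.2 nM final in 50mM citric acid/KH2PO4, 10mM sodium taurocholate, 0.01% tween-20, pH 5.9, with resorufin beta-D-glucopyranoside at 30 uM final. Compounds titrated, 20 min at RT, red fluorescence read; AC50 from titration.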
Potency is read from the fitted curve at half-maximal effect.

Potency, inactive:
CC(=O)c1cn(CC(=O)NCC2CCCO2)c2ccccc12 (stereo not drawn) > 76.9 µM
CC1CCCCN1S(=O)(=O)c1ccc2c(c1)oc(=O)n2CC(=O)O (stereo not drawn) > 76.9 µM
CCOC(=O)c1c(NC(=O)CSc2nnc(-c3cccnc3)o2)sc(C(C)=O)c1C > 76.9 µM
CN(C1CCCCC1)S(=O)(=O)c1ccccc1 > 76.9 µM
Cc1ccc(-c2nnc3ccc(SCC(=O)N4CCCCC4)nn23)cc1 > 76.9 µM
Cc1nnc2n1NC(c1ccc(Cl)cc1)C(C(=O)N1CCC(C)CC1)S2 (stereo not drawn) > 76.9 µM
CC(=O)OC(Cn1nc(C)cc1C)c1ccccc1 (stereo not drawn) > 76.9 µM
Cc1ccc(-c2noc(CCC(=O)Nc3cc(C)ccn3)n2)cc1 > 76.9 µM
Cc1c(C#N)c2ncn(CCCN(C)C)c(=O)c2n1-c1ccccc1 > 76.9 µM
CCn1ncc(C(=O)Nc2ccc(S(=O)(=O)N3CCCC3)cc2)c1C > 76.9 µM
Clc1ss/c(=N\c2ccccn2)c1Cl > 76.9 µM
Cn1c(=O)c2ncn(CC(=O)NCCOc3ccccc3)c2n(C)c1=O > 76.9 µM
CCOc1ccc2cc(C#N)c(SCC(=O)N3CCCC3)nc2c1 > 76.9 µM
CCNc1nc(N2CCOCC2)nc(N(c2ccccc2)c2ccccc2)n1 > 76.9 µM
CC1(C)CC(=O)C2=C(C1)N(CC1CCCO1)C(=O)C2(NC(=O)c1cccnc1)C(F)(F)F (stereo not drawn) > 76.9 µM
Cc1cc(C(F)(F)F)nc(SCC(=O)NC2CC3CCC2C3)n1 (stereo not drawn) > 76.9 µM
CCOC(=O)C1CCN(Cc2ccccc2C(F)(F)F)CC1
CCn1c(Cn2nnc(-c3ccccc3)n2)nnc1SCC(=O)Nc1ccc(N(C)C)cc1
O=C1CC(N2CCN(S(=O)(=O)c3ccc(Cl)cc3)CC2)C(=O)N1CCc1ccccc1 (stereo not drawn) > 76.9 µM
COc1cccc(OCCCCN2CCCCC2)c1 > 76.9 µM
CCCN1Cc2cccc(C(=O)NCc3ccccc3)c2C1=O > 76.9 µM
Cn1c(=O)c2c(nc(CN3CCc4ccccc4C3)n2Cc2ccccc2)n(C)c1=O > 76.9 µM
O=C(NCCC1=CCCCC1)C1COc2ccccc2O1 (stereo not drawn) > 76.9 µM
CCOC(=O)CSc1nc2ccccc2c(=O)n1Cc1ccco1 > 76.9 µM
N#Cc1nc(-c2ccccc2F)oc1NCc1cccc2c1OCO2 > 76.9 µM
COCCN(CCOC)Cc1cc(=O)oc2cc3c(cc12)CCC3 > 76.9 µM
CSCC[C@H](NC(=O)OC(C)(C)C)c1nnc(SCc2ccccc2)o1
CC(C(=O)Nc1ccccn1)N1C(=O)C2C3C=CC(C3)C2C1=O (stereo not drawn) > 76.9 µM
O=C(Nc1nnc(C2CC2)s1)c1cccc(S(=O)(=O)N2CCc3ccccc32)c1 > 76.9 µM
CN(Cc1ccccc1)Cc1nc2c(c(=O)n(C)c(=O)n2C)n1Cc1ccccc1Cl > 76.9 µM
CCC(=O)N1c2ccccc2[C@@H](N(C(C)=O)c2ccccc2)C[C@H]1C > 76.9 µM
COc1cc(C)nc(N2CCCC(C(=O)Nc3cccc(Cl)c3Cl)C2)n1 (stereo not drawn) > 76.9 µM
O=C(c1cc(-c2ccncc2)nc2ccccc12)N1CCN(c2ccc(N3CCOCC3)nn2)CC1 > 76.9 µM
CC(Sc1nnc(C2CCCCC2)n1N)C(=O)NCc1ccc2c(c1)OCO2 (stereo not drawn) > 76.9 µM
COc1cc(C)nc(OCCNC(=O)COc2ccc(Cl)cc2C)n1 > 76.9 µM
Cc1cc(=O)c2n(Cc3ccc(Cl)cc3)nc[n+]2[nH]1 > 76.9 µM
COc1ccc(C(N)CCc2ccco2)cc1 (stereo not drawn) > 76.9 µM
Cc1ccccc1-n1c(-c2cccnc2)n[nH]c1=S > 76.9 µM
Cn1nccc1C(=O)c1ccc(Cl)cc1 > 76.9 µM
CCOc1ccc(OCc2ccc(C(=O)NCc3ccncc3)o2)cc1 > 76.9 µM
COc1cc(NC(=O)C2CCCO2)c(OC)cc1NC(=O)c1ccccc1 (stereo not drawn) > 76.9 µM
Cc1ncc2c(c1OC(=O)c1ccccc1)COC(C)(C)OC2 > 76.9 µM
CS(=O)(=O)NC1c2cccc3cccc(c23)C1Sc1nncn1/N=C/c1ccco1 (stereo not drawn) > 76.9 µM
COc1cc(C)nc(N2CCC(C(N)=O)CC2)n1 > 76.9 µM
COc1cccc(C2=NOC(C(=O)Nc3cccc(C(C)=O)c3)C2)c1OC (stereo not drawn) > 76.9 µM
COc1cc(NS(=O)(=O)c2ccc(OC)c(C)c2C)c(OC)cc1Cl > 76.9 µM
COc1ccccc1NC(=O)c1ccc(S(=O)(=O)N2CCOCC2)cc1 > 76.9 µM
O=C(CSc1nc2ncccc2[nH]1)Nc1ccc2c(c1)OCCO2 > 76.9 µM
CCOC(=O)c1cc2sc(C)cc2n1CC(=O)Nc1cccc(C)c1C > 76.9 µM
COc1cc(NC(=O)CSc2nnnn2-c2ccccc2)cc(OC)c1OC > 76.9 µM
CC1(C)OC(=O)C(=CNc2ccccc2F)C(=O)O1 > 76.9 µM
Cn1c(=N)n(CC(O)c2cccc3ccccc23)c2ccccc21 (stereo not drawn)
Cc1ccc(NC(=O)N2CCC(C(N)=O)CC2)cc1 > 76.9 µM
COc1cccc(C2CC(c3ccccc3Cl)n3ncnc3N2)c1 (stereo not drawn) > 76.9 µM
CCOC(=O)N1CCN(C(=O)c2ccc3c(c2)ncn3C2CCCC2)CC1 > 76.9 µM
COc1ccc(CCNC(=O)c2nnc(Cc3c(F)cccc3Cl)o2)cc1OC > 76.9 µM
O=C(NCCN1CCCCC1)c1cc2ccccc2[nH]1 > 76.9 µM
CCCCCOc1ccc(C(=O)NC(C(=O)O)C(C)C)cc1 (stereo not drawn) > 76.9 µM
Cc1cccc(C(=O)NCCN2CCN(c3ccccc3)CC2)c1 > 76.9 µM
Cc1cc2c(C)nc(-c3ccccc3)nc2o1 > 76.9 µM
COc1ccc(CC(=O)N2CCN(c3ccccn3)CC2)cc1OC > 76.9 µM
COc1cc(Cl)ccc1NC(=O)COc1ccccc1C(=O)N1CCN(c2ccc(O)cc2)CC1
CCNS(=O)(=O)c1ccc(NC(=O)Nc2cccc(C(F)(F)F)c2)cc1 > 76.9 µM
Cc1cccc(C)c1NC(=O)C(NC=O)c1ccc(N(C)C)cc1 (stereo not drawn) > 76.9 µM
CCN(CC)C(=O)c1cc2cc(Br)ccc2oc1=O > 76.9 µM
CCC(=O)Nc1ccc2c(c1)C(=O)N(C1CCCCC1)C2=O > 76.9 µM
CCC(=O)NC(C)c1nc2ccccc2n1C (stereo not drawn) > 76.9 µM
COc1cc(C)nc(NC(=O)COc2ccc(Cl)cc2C)n1 > 76.9 µM
Cc1cc(C(=O)Cn2nnc3ccccc3c2=O)c(C)n1-c1c(C)n(C)n(-c2ccccc2)c1=O > 76.9 µM
COC(=O)Cc1cnc(NC(=O)C2C3CCC(C3)C2C(=O)O)s1 (stereo not drawn) > 76.9 µM
Fc1ccccc1OCCSc1nnnn1-c1ccccc1 > 76.9 µM
CC1CCN(C(=O)c2cccc(S(=O)(=O)N3CCCCC3)c2)CC1 > 76.9 µM
N#CC(C(=O)C12CC3CC(CC(C3)C1)C2)c1nc2ccccc2[nH]1 (stereo not drawn) > 76.9 µM
CC(C)N(Cc1nc(-c2ccccc2)no1)C(=O)CN1C(=O)c2ccccc2C1=O > 76.9 µM
CCCC1CCC(C(=O)Nn2c(C)nc3ccccc3c2=O)CC1 (stereo not drawn) > 76.9 µM
O=C1CC2(CCCCC2)Oc2ccc(O)cc21 > 76.9 µM
O=C(O)CC(c1ccc(Cl)cc1)n1cccc1 (stereo not drawn) > 76.9 µM
CCOC(=O)Cc1csc(NS(=O)(=O)c2ccc3c4c(cccc24)C(=O)N3CC)n1 > 76.9 µM
CC(C)(C)NC(=O)CSc1nnc(-c2ccncc2)n1Cc1ccccc1 > 76.9 µM
CCOC(=O)N1CCN(C(=O)c2ccccc2NC(=O)c2ccc(OC)cc2)CC1 > 76.9 µM
Cc1ccc(CCNC(=O)c2nnn(-c3cc(C)cc(C)c3)c2N)cc1 > 76.9 µM
CC(=O)c1cc(C)ccc1OC(=O)c1cccnc1 > 76.9 µM
CCN1C(=O)c2c(C)nc3ccccc3c2C1=O > 76.9 µM
COc1ccc(Nc2ncnc3c2cnn3Cc2ccccc2)cc1 > 76.9 µM
CCOC(=O)c1cnc(SCC(=O)Nc2ccc3c(c2)OCCO3)nc1N > 76.9 µM
CCN(CCNC(=O)C1CC(=O)N(CCc2ccccc2)C1)c1ccccc1 (stereo not drawn) > 76.9 µM
O=C(c1cccc(COCC(F)(F)C(F)F)c1)N1CCN(c2ccccc2)CC1 > 76.9 µM
COc1cc(Cl)cc(C#N)c1OCC(=O)O > 76.9 µM
CCOC(=O)c1[nH]cnc1C(=O)Nc1ccncc1 > 76.9 µM
Cc1ccc(S(=O)(=O)N2CCCC2C(=O)N2CCCCCC2)cc1 (stereo not drawn) > 76.9 µM
CCCOc1ccc(C2C(C#N)=C(N)Oc3nc[nH]c(=O)c32)cc1OC (stereo not drawn) > 76.9 µM
CCOC(=O)C1CCN(C(=O)Nc2ccc3nc(C)c(C)nc3c2)CC1
CN(C)S(=O)(=O)N1CCCN(S(=O)(=O)N(C)C)CC1 > 76.9 µM
